The values that follow come from patent US20260184758A1 (CUE BIOPHARMA, published 2026).

The target in assay [1] is T1, biotinylated NKG2A/CD94 heterodimer (UniProt P26715, in part; Q13241, in part).
T1 construct: Biotinylated heterodimer immobilized on streptavidin-coated biosensors; also called CD94/NKG2A receptor; NKG2A/CD94 complex
The experiment in a line: BLI (Octet HTX), biotinylated receptor on streptavidin biosensor, bivalent TMP as analyte, kinetic analysis. From the text: (§1) Streptavidin-coated biosensors were used to immobilize biotinylated NKG2A/CD94 heterodimers, or biotinylated NKG2C/CD94 heterodimers.
In general terms: BLI is a label-free optical method that tracks binding on a fibre tip over time.

For assay [2], the target named is T2, biotinylated NKG2C/CD94 heterodimer (UniProt P26717, in part; Q13241, in part).
T2 construct: Biotinylated heterodimer immobilized on streptavidin-coated biosensors; also called CD94/NKG2C receptor
Described as above.
Text: as §1

In assay [3] the target is T1, biotinylated NKG2A/CD94 heterodimer. Briefly: BLI (Octet HTX), biotinylated receptor on streptavidin biosensor, bivalent TMP as analyte, kinetic Kd (avidity).
Text: as §1

Assay [4] has as its target T2, biotinylated NKG2C/CD94 heterodimer. The assay is described as above.
Text: as §1

Assay [5] concerns the target T1, biotinylated NKG2A/CD94 heterodimer. Briefly: BLI (Octet HTX), biotinylated receptor on streptavidin biosensor, bivalent TMP as analyte, steady state Kd (avidity).
Text: as §1

Assay [6] deals with T2, biotinylated NKG2C/CD94 heterodimer. The description is as above.
Text: as §1

B1: construct 4517 (single-chain TMP: NKG2 peptide VMAPRTLFL, β2M polypeptide, HLA-E heavy chain polypeptide, Ig Fc polypeptide, 2 copies of a variant IL-2) (peptide-MHC)
chain: VMAPRTLFLGCGGSGGGGSGGGGS[letters of about 100 residues omitted]GGGGSGGGGSGGGGSGSHSLKYFHTSVSRPGRGEPRFISVGYVDDTQFVRFDNDAASPRMVPRAPWMEQEGSEYWDRETRSARDTAQIFRVNLRTLRGCYNQSEAGSHTLQWMHGCELGPDRRFLRGYEQFAYDGKDYLTLNEDLRSWTAVDTAAQISEQKSNDASEAEHQRAYLEDTCVEWLHKYLEKGKETLLHLEPPKTHVTHHPISDHEATLRCWALGFYPAEITLTWQQDGEGHTQDTELVETRPCGDGTFQKWAAVVVPSGEEQRYTCHVQHEGLPEPVTLRWKAAAGG[letters of human IgG1 Fc with changes omitted]GGGGSGGGGSGGGGS[letters of about 150 residues omitted]GGGGSGGGGSGGGGSGGGGS[letters of about 150 residues omitted]
Regarding B1, the koff in assay [1] is 0.012 s⁻¹; in assay [2], 0.014 s⁻¹. For the same molecule, the on-rate (kon) worked out at 1.2e+06 M⁻¹ s⁻¹ in assay [1] and 1.6e+06 M⁻¹ s⁻¹ in assay [2]. The Kd in assay [3] turned out to be 10 nM; in assay [4] it was 8.5 nM; in assay [5], 10 nM; in assay [6], 5.8 nM.

As usually defined, the koff is the rate constant with which the complex falls apart. The kon is a measure of how fast the partners come together.
